# Data from PubChem BioAssay AID894 (National Center for Advancing Translational Sciences (NCATS), 2007).
# Values joined by “and” are separate entries in the source; they are usually repeats but may differ in a detail not shown here. Identical values can stand only once. In all, about 150,000 compounds went through this assay and about 6,500 (4.3%) were called active. Inconclusive means that the source gave no clear call. Such entries were picked first, then a sample of the others. Calls follow the shape of the dose curve; as a rule, active = well fitted inhibition curve with a large enough effect (not every such curve was filed as active); inconclusive = small, poorly fitted or top-dose-only effect, or another doubt; inactive = no such curve, though single readings can be large or run the other way. No potency is given beside an inconclusive call; the fits are too rough.
# Molecular target: 15-hydroxyprostaglandin dehydrogenase [NAD(+)] (Homo sapiens) (UniProt P15428)
# Sequence of UniProt P15428 (P15428 whole entry, looked up): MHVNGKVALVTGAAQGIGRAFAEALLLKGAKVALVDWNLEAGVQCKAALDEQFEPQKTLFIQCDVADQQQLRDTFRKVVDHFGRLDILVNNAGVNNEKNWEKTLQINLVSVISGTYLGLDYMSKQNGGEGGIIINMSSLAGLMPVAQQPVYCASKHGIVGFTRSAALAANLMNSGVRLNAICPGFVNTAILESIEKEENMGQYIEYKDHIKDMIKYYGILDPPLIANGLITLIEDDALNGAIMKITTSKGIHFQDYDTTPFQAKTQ
# Test: qHTS Assay for Inhibitors of HPGD (15-Hydroxyprostaglandin Dehydrogenase)
# Conditions: purified HPGD, NADH fluorescence kinetic, PGE2 substrate; activity change, negative = inhibition: hits give low values
# Summary of the method: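 NADH formation kinetics: reaction with 30 uM PGE2 and 1 mM NAD+ (final), 20 nM enzyme, Tris-HCl pH 8 with Tween 20, after 15 min compound preincubation at room temperature. Fluorescence change, last versus first of five reads.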
# % is scaled to controls: 0 for no effect and ±100 for the full control effect; potency is read from the fitted curve at half-maximal effect; tags tell the direction and shape of the fitted curve.
Compound,"activity change, negative = inhibition",Potency
CCOC(=O)C(=CNCC(=O)OC)C(=O)OCC,inactive: -4.33%,–
O=C(c1c[nH]c2ccc(S(=O)(=O)N3CCC4(CC3)OCCO4)cc2c1=O)N1CCOCC1,–,"inconclusive [inhibitor, partial curve]"
COC(=O)C1=C(C)Nc2nnnn2C1c1ccco1 (stereo not drawn),–,"inconclusive [inhibitor, partial curve]"
N#Cc1c2c(c(NCCCN3CCOCC3)n3c1nc1ccccc13)CCC2,–,"inconclusive [inhibitor, partial curve]"
O=C(CC1SC(=Nc2ccccc2)N(CCc2c[nH]c3ccccc23)C1=O)Nc1ccccc1F (stereo not drawn),inactive: -18.5%,–
COc1ccc(N(CC(=O)N/N=C/c2cc3ccc(OC)cc3nc2Cl)S(=O)(=O)c2ccccc2)cc1,–,"inconclusive [inhibitor, partial curve]"
CCC(CC)NC(=O)/C=C/c1ccccc1Cl,–,"inconclusive [inhibitor, full curve]"
CNC(=O)c1ccsc1NC(=O)c1ccc2c(c1)CCCC2,–,"inconclusive [inhibitor, partial curve]"
Cc1ccc(C(OCCN(C)C)c2cccc(C(F)(F)F)c2)cc1 (stereo not drawn),inactive: -10.4%,–
N#CC1=C(N)OC2=C(C(=O)CCC2)C12CCN(C(=O)OCc1ccccc1)CC2,inactive: -24.2%,–
Cc1[nH][nH]c(=O)c1C(c1ccc(-c2ccc(Cl)c(Cl)c2)o1)c1c(C)[nH][nH]c1=O,–,"inconclusive [inhibitor, single point]"
COc1ccc(/C=C/C(=O)NC(=S)NNC(=O)c2cccnc2)cc1OC,–,active: 31.6 µM
c1ccc2c(c1)nnn2Cc1nnc2sc(-c3ccncc3)nn12,–,active: 17.8 µM
CC1CCN(S(=O)(=O)c2ccc3c(c2)C(=NO)c2cc(S(=O)(=O)N4CCC(C)CC4)ccc2-3)CC1,–,"inconclusive [inhibitor, partial curve]"
COc1ccccc1OC(=O)c1ccc(SC)cc1OC,inactive: -8.76%,–
COc1cccc(NC(=O)c2oc3ccccc3c2NC(=O)c2ccc3c(c2)OCO3)c1,–,"inconclusive [inhibitor, partial curve]"
Cc1cc(=O)oc2cc(OCC(=O)N3c4ccccc4CC3C)ccc12 (stereo not drawn),–,"inconclusive [inhibitor, partial curve]"
N=C(N)SCc1nc2ccccc2c(=O)n1-c1ccccc1Cl,–,"inconclusive [inhibitor, partial curve]"
O=C(/C=C/c1ccc(F)cc1)NCC1(c2ccccc2)CCOCC1,inactive: -4.14%,–
Cc1[nH]n(-c2ncc(-c3ccccc3)s2)c(=O)c1C(c1ccc(Cl)cc1)C(C#N)C#N (stereo not drawn),–,active: 25.1 µM
Cc1[nH]n(-c2ccccc2)c(=S)c1C=Nc1cccc([N+](=O)[O-])c1,–,active: 8.91 µM
CCOC(=O)CCc1c(C)c2ccc(O)cc2oc1=O,–,"inconclusive [inhibitor, full curve]"
CCCCCCn1c(N(CC)CC)nc2c1c(=O)[nH]c(=O)n2C,–,"inconclusive [inhibitor, partial curve]"
CCCCOC(=O)CNc1nnc(SCC(=O)OCC)[nH]c1=O,–,"inconclusive [inhibitor, single point]"
O=C(NCc1cccnc1)c1cnc2sccn2c1=O,–,"inconclusive [inhibitor, partial curve]"

Compound,"activity change, negative = inhibition",Potency
CC(C)C[C@@H](CC(=O)N[C@H](CC(=O)N[C@@H]1CCCC[C@H]1C(=O)N[C@H](CC(=O)N[C@@H](CCC(=O)O)CC(=O)O)Cc1ccccc1)C(C)C)NC(=O)[C@@H]1CCCC[C@H]1N,inactive: 0.332%,–
Cc1cccc(NC(=O)c2cc(-c3ccc(C)s3)nc3ccccc23)n1,–,"inconclusive [inhibitor, partial curve]"
CC(=O)Nc1ccc(S(=O)(=O)Oc2ccc(C(=S)N3CCC(O)CC3)cc2)cc1,–,active: 31.6 µM
Cc1ccc(-c2nc3cccnc3s2)cc1NS(=O)(=O)c1ccc2c(c1)OCCO2,–,"inconclusive [inhibitor, partial curve]"
CCC1CCCCN1C(=S)Nc1ccc(C(C)=O)cc1 (stereo not drawn),inactive: -21.2%,–
O=C(NC(=S)NNC(=O)c1ccccc1O)c1ccco1,–,"inconclusive [inhibitor, full curve, poor fit]"
CC(=O)Nc1cccc(Oc2ncnc3scc(-c4ccc(C)cc4)c23)c1,–,active: 28.2 µM
O=S(=O)(Nc1cccnc1)c1cccc(C(F)(F)F)c1,inactive: -12%,–
Cc1cc(C)n(CC(O)CN2c3ccccc3Sc3ccccc32)n1 (stereo not drawn),inactive: -10.2%,–
COc1cc(C(=O)Nc2ccc(S(=O)(=O)N(C)c3ccccc3)cc2)cc(OC)c1OC,inactive: -16.1%,–
S=C(c1ccc(-c2cc(Cl)ccc2Cl)o1)N1CCOCC1,–,active: 28.2 µM
CN(C)/C=C(/C#N)C(=O)c1cccc(Oc2ccc(C(C)(C)C)cc2)c1,–,active: 22.4 µM
COc1ccc(OC2C(=O)N(c3ccc(C)c(C)c3)C2c2ccc(OC)c(OC)c2)cc1 (stereo not drawn),inactive: 0.668%,–
C=CCn1c(NS(=O)(=O)c2ccccc2)c(S(=O)(=O)c2ccc(C)cc2)c2nc3ccccc3nc21,–,"inconclusive [inhibitor, partial curve]"
Cc1ccc(S(=O)(=O)N(C)CC(=O)OCc2nnc(-c3ccccc3)o2)cc1,–,active: 25.1 µM
COc1ccccc1CNc1nc(-c2ccc(N(C)C)cc2)nc2ccccc12,–,"inconclusive [inhibitor, partial curve]"
CCOC(=O)C1CCCN(CCCc2ccccc2)C1 (stereo not drawn),inactive: -15.3% and inactive: -2.54%,–
COc1cccc(O)c1O,–,active: 15.8 µM
Cc1nc(N2CCOCC2)nc(N2CCCCC2)c1[N+](=O)[O-],inactive: -2.32%,–
CCC(=O)Nc1c(C)n[nH]c1C,inactive: -8.91%,–
O=C(Nc1nc2ccccc2n1CCOc1ccc(Cl)cc1)c1ccco1,–,"inconclusive [inhibitor, single point]"
Cc1cc(C)c(C(N)=O)c(NCCc2ccccc2)n1,–,"inconclusive [inhibitor, partial curve]"
COc1cc(-c2nnc(-c3ccco3)o2)ccc1OCc1ccccc1,–,"inconclusive [inhibitor, partial curve]"
O=C(/C=C/c1ccccc1[N+](=O)[O-])NCC1CCCO1 (stereo not drawn),–,active: 4.47 µM
CCC(=O)OCCNc1cc(Sc2nccn2C)c2nonc2c1[N+](=O)[O-],–,"inconclusive [inhibitor, single point]"

Compound,"activity change, negative = inhibition",Potency
O=C1CCCC2=C1C1(CCCC1)N=C(Nc1nc3ccccc3s1)N2,–,"inconclusive [inhibitor, partial curve]"
Cc1nn(C)c(C)c1NS(=O)(=O)c1ccccc1,inactive: -2.01%,–
O=c1c(-c2cc(F)cc(F)c2)nc2cnc(N3CCOCC3)nc2n1C1CC1,–,"inconclusive [inhibitor, partial curve]"
COc1cccc(OC(C)c2ccnc3nc(/N=C/N(C)C)nn23)c1 (stereo not drawn),–,"inconclusive [inhibitor, partial curve]"
O=C(NCCN=C1NS(=O)(=O)c2ccccc21)c1ccncc1,inactive: -2.75%,–
Cn1c(=O)c2c(n(C)c1=O)=NC1(CCCCC1)ON=2,inactive: -12.5%,–
COc1ccccc1-c1cc(C(F)(F)F)n2ncc(S(=O)(=O)c3ccccc3)c2n1,–,"inconclusive [inhibitor, partial curve]"
CCc1nnc(SCc2ccc(OC)c(Br)c2)n1N,inactive: -24.4%,–
COCCNC(=O)c1nn2cccnc2c1Cl,–,"inconclusive [inhibitor, single point]"
CCOC(=O)C(C(=O)OCC)C(C(=O)OCC)N1CCOCC1 (stereo not drawn),–,active: 22.4 µM
Nc1nc(NCC2CCC(CNS(=O)(=O)c3cccc4ccccc34)CC2)nc2ccccc12 (stereo not drawn),–,"inconclusive [inhibitor, single point]"
COc1ncnc2sc(-c3ccccc3)cc12,–,"inconclusive [inhibitor, partial curve]"
O=S(=O)(N/N=C\C=C\c1ccccc1)c1ccc(Br)cc1,–,"inconclusive [inhibitor, single point]"
CN(C(=O)COC(=O)c1ccccc1SCC(=O)NC1CCCCCCC1)C1CCS(=O)(=O)C1 (stereo not drawn),–,"inconclusive [inhibitor, single point]"
Cc1nc(C)c(-c2csc(NCc3ccco3)n2)s1,inactive: -13.1%,–
Cc1cc(N2CCC(C)CC2)n2ncc(-c3ccccc3)c2n1,–,"inconclusive [inhibitor, partial curve]"
COc1ccc(NC(=O)c2oc3ccccc3c2NC(=O)COc2ccccc2OC)c(OC)c1,–,"inconclusive [inhibitor, partial curve]"
O=C(O)c1ccc(-n2nnnc2SCc2ccccc2F)cc1,–,active: 15.8 µM
COc1cccc(-c2csc(NC(C)=O)n2)c1,–,"inconclusive [inhibitor, partial curve]"
COc1cc(NC(=O)c2ccccc2NS(=O)(=O)c2ccc(Cl)s2)cc(OC)c1,inactive: -5.94%,–
CSC1=NSC2=NC(=O)/C(=C\c3coc4ccccc4c3=O)C(=N)N12,–,active: 31.6 µM
O=C1C2CC=C(Cl)CC2C(=O)N1CC1Cc2ccccc2CO1 (stereo not drawn),–,active: 22.4 µM
CCC(=O)O[C@H]1C(O[C@@H]2C(C)[C@H](O[C@H]3C[C@@](C)(OC)C(O)C(C)O3)C(C)C(=O)OC(CC)[C@@](C)(O)C(O)[C@H](C)C(=O)C(C)C[C@]2(C)O)OC(C)CC1N(C)C (stereo partly drawn),–,"inconclusive [inhibitor, single point]"
